{
  "source": "PubChem BioAssay AID1347417",
  "about": "(National Center for Advancing Translational Sciences (NCATS), 2020)",
  "note": "Among all 120,000 compounds or so, about 5,300 (4.4%) were called active. This list was built around the results that the source calls inconclusive (neither active nor inactive); the mix of calls is not that of the screen. Calls follow the shape of the dose curve; as a rule, active = well fitted inhibition curve with a large enough effect; inconclusive = small, poorly fitted or top-dose-only effect; inactive = no such curve, though single readings can be large or run the other way. Potencies of inconclusive entries are doubtful fits and often do not repeat. Potency is read from the fitted curve at half-maximal effect; tags tell the direction and shape of the fitted curve.",
  "data": [
    {"assay": "qHTS Primary assay for Inhibitors of Plasmodium falciparum Dd2 growth in vitro; also: nearly all actives have a fitted effect of over 65% in size;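 as to activity, negative = inhibition: plate controls were DMSO vehicle for no effect and reference drug for full effect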", "conditions": "P. falciparum Dd2 growth, SYBR Green, 72 h; activity, negative = inhibition: at 28.9 µM (top of the series) unless noted; series mostly up to 28.9 µM", "procedure,_shortened": "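Readout: SYBR Green fluorescence, 485 nm excitation, 535 nm emission, after ~16 h lysis at 37C. Before that, Dd2-infected red cells (2.5% hematocrit) grew 72 h with compound, 29 uM top final concentration.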", "values": [
      {"smiles": "COc1ccc(-n2nc(C(=O)N3CCCCC3)c3c4ccccc4n(C)c3c2=O)cc1Cl", "Potency": "inconclusive: 7.08 µM [inhibitor, partial curve, poor fit]"},
      {"smiles": "Cc1ccc(OCC(=O)N2CCOc3ccc(CN4CCc5ccccc5C4)cc3C2)cc1", "Potency": "inconclusive: 7.94 µM [inhibitor, partial curve, poor fit]"},
      {"smiles": "CCOC(=O)c1cc(-c2ccccc2)n(CCC(=O)NCCc2ccc(C)cc2)c1C", "Potency": "inconclusive: 17.8 µM [inhibitor, single point]"},
      {"smiles": "COc1ccc(C2Cn3nnc(-c4nc(-c5ccccc5OC)no4)c3CO2)cc1", "note": "(configuration not stated)", "activity, negative = inhibition": "inactive: -0.827%"},
      {"smiles": "Cc1noc(-c2cn(C3CCCN(C(=O)c4ccc(F)cc4)C3)nn2)n1", "note": "(configuration not stated)", "activity, negative = inhibition": "inactive: -0.65%"},
      {"smiles": "CS(=O)(=O)c1ccc(-c2cnc([C@@H]3COCCN3Cc3cnc4ccccc4c3)[nH]2)cc1", "Potency": "inconclusive: 17.8 µM [inhibitor, single point]"},
      {"smiles": "COc1cc2c(=O)c(S(=O)(=O)c3ccc(C(C)C)cc3)cn(Cc3ccccc3C)c2cc1OC", "Potency": "active: 8.91 µM"},
      {"smiles": "O=C(c1ccccc1F)N1CCC2(CC1)CCN(Cc1cccs1)c1ccccc1O2", "Potency": "inconclusive: 12.6 µM [inhibitor, single point]"},
      {"smiles": "Cc1nc2c(c(-c3ccc(Cl)cc3)n1)CCN(C(=O)c1cccc(Cl)c1)CC2", "Potency": "inconclusive: 20 µM [inhibitor, single point]"},
      {"smiles": "COc1cccc(CNC(=O)C2CN(Cc3ccccc3)C(=O)N2)c1", "note": "(configuration not stated)", "Potency": "inconclusive: 17.8 µM [inhibitor, partial curve, poor fit]"},
      {"smiles": "COc1ccc(CN2C[C@@H](F)[C@@H](OCc3nc4ccccc4[nH]3)C2)cc1", "Potency": "inconclusive: 31.6 µM [inhibitor, single point]"},
      {"smiles": "CC(C)(C)OC(=O)N1CCC(c2c(C(=O)N3CCN(c4ccccn4)CC3)cnn2-c2cccc(F)c2)CC1", "Potency": "inconclusive: 17.8 µM [inhibitor, single point]"},
      {"smiles": "Cc1ccc(N2CCN(C(=O)c3cn(C)c4ccc(S(=O)(=O)N5CCCC5)cc4c3=O)CC2C)cc1", "note": "(configuration not stated)", "Potency": "inconclusive: 20 µM [inhibitor, single point]"},
      {"smiles": "CCC(=O)C(=O)N1CCC2(CCCN(Cc3ccc(C(C)C)cc3)C2=O)C1", "note": "(configuration not stated)", "Potency": "inconclusive: 17.8 µM [inhibitor, partial curve, poor fit]"},
      {"smiles": "CCOc1cc(C(Nc2cc(C)ccn2)c2ccc3cccnc3c2O)ccc1OC", "note": "(configuration not stated)", "Potency": "inconclusive: 17.8 µM [inhibitor, single point]"},
      {"smiles": "COc1ccccc1CC(=O)NC1CCN(c2cnn(CC3CC3)c(=O)c2)CC1", "Potency": "inconclusive: 2.51 µM [inhibitor, full curve, poor fit]"},
      {"smiles": "Cc1nn2c(c1-c1cccnc1N1CCOCC1)N(C(=O)c1ccc(Oc3ccccc3)cc1)CCC2", "Potency": "inconclusive: 10 µM [inhibitor, partial curve, poor fit]"},
      {"smiles": "COc1ccc(NC(=O)Cn2nnc(C(=O)NCc3ccco3)c2N)c(OC)c1", "activity, negative = inhibition": "inactive: -18.6%"},
      {"smiles": "O=C1Nc2ccccc2CC12CCCN2Cc1ccncc1", "note": "(configuration not stated)", "Potency": "inconclusive: 10 µM [inhibitor, partial curve, poor fit]"},
      {"smiles": "Cc1ccc(-c2ccccc2CN)c(C)c1", "Potency": "active: 5.01 µM"},
      {"smiles": "O=C(CSc1nc2c([nH]c3ccccc32)c(=O)n1-c1ccc(Cl)cc1)NC1CCCCC1", "Potency": "active: 12.6 µM"},
      {"smiles": "COc1ccc(CNC2(Cc3cc(COc4ccccc4)on3)COC2)cc1", "activity, negative = inhibition": "inactive: -17.9% [at 44.1 µM]"},
      {"smiles": "CCCCCC(=O)Nc1nc2c(s1)C[C@@H]1[C@](C)(CO)[C@H](O)CC[C@@]1(C)[C@@H]2CC(=O)NC1CCCCC1", "outcome": "inactive"},
      {"smiles": "CCC(CC)c1cc([C@H]2CN3CC[C@H]2C[C@@H]3COC(=O)Nc2ccc(C(C)(C)C)cc2)nc(-c2ccncc2)n1", "Potency": "active: 1.26 µM"},
      {"smiles": "CCc1ccc(NC(=O)N2CCN(Cc3nc4ccc(C)cc4o3)CC2)cc1", "Potency": "inconclusive: 10 µM [inhibitor, single point]"},
      {"smiles": "CC1=Nc2cc(C(=O)NCCCN(C)C)ccc2Sc2ccc(F)cc21", "Potency": "inconclusive: 12.6 µM [inhibitor, single point]"},
      {"smiles": "O=C(C1CCC(Cn2c(=O)c3sccc3n(Cc3ccccc3F)c2=O)CC1)N1CCOCC1", "note": "(configuration not stated)", "Potency": "inconclusive: 10 µM [inhibitor, single point]"},
      {"smiles": "C#CCNC(=O)c1nc(-c2ccc(F)cc2)c2ccccn12", "Potency": "inconclusive: 35.5 µM [inhibitor, single point]"},
      {"smiles": "COCCc1nncn1C1CCN(S(=O)(=O)c2ccc(C(F)(F)F)cc2)CC1", "activity, negative = inhibition": "inactive: 2.25%"},
      {"smiles": "CN(C)c1nc2c(c(=O)[nH]1)CCN(Cc1ccc(F)c(Br)c1)CC2", "Potency": "inconclusive: 2.51 µM [inhibitor, single point]"},
      {"smiles": "Cc1cccc(C)c1NC(=O)C(=O)NCC(c1cccnc1)N1CCc2ccccc21", "note": "(configuration not stated)", "Potency": "inconclusive: 17.8 µM [inhibitor, single point]"},
      {"smiles": "Cc1cc(C)cc(-n2c(SCC(=O)NCc3ccc(F)cc3)nc3c([nH]c4ccccc43)c2=O)c1", "Potency": "active: 11.2 µM"},
      {"smiles": "Fc1ccc(Cc2noc(-c3nc(-c4ccncc4)no3)n2)cc1", "activity, negative = inhibition": "inactive: -14.5%"},
      {"smiles": "COc1cc(NC(=O)CSc2nc(-c3ccccc3)no2)cc(OC)c1", "Potency": "active: 1.12 µM"},
      {"smiles": "CCOc1ccc(NC(=O)CN2C(=O)c3ccccc3Sc3ccc(C(=O)OC)cc32)cc1", "Potency": "inconclusive: 11.2 µM [inhibitor, single point]"},
      {"smiles": "CCOc1cc2sc(N3CCC(C(=O)Nc4ccccc4C(=O)OC)CC3)nc2cc1Br", "activity, negative = inhibition": "inconclusive: -72% [inhibitor] [at 5.79 µM]"},
      {"smiles": "O=C(C1CCC(CNS(=O)(=O)c2ccc(Br)s2)CC1)N1CCN(c2ccccc2Cl)CC1", "note": "(configuration not stated)", "Potency": "inconclusive: 10 µM [inhibitor, single point]"},
      {"smiles": "NCCc1n[nH]c(=O)n1-c1ccc2c(c1)OCO2", "activity, negative = inhibition": "inactive: -4.62%"},
      {"smiles": "Cc1cc(N2CCC(c3[nH]ncc3Cc3ccccc3)CC2)nc(N)n1", "Potency": "inconclusive: 17.8 µM [inhibitor, single point]"},
      {"smiles": "Cc1ncc(CO)c2c1Oc1nc(-c3ccccc3)nc(SCC(=O)N3CCCCC3)c1C2", "Potency": "inconclusive: 7.08 µM [inhibitor, partial curve]"},
      {"smiles": "Cc1noc2c(NCc3cccnc3)cc(-c3cccc(C(F)(F)F)c3)nc12", "Potency": "inconclusive: 8.91 µM [inhibitor, partial curve, poor fit]"},
      {"smiles": "COCC(=O)N(C1CCOCC1)C1CCN(C(=O)Cc2ccc(C)cc2)CC1", "activity, negative = inhibition": "inactive: -4.66%"},
      {"smiles": "O=C(Cn1c(=O)oc2cc(S(=O)(=O)N3CCCC3)ccc21)NCc1ccc(Cl)cc1", "Potency": "inconclusive: 8.91 µM [inhibitor, partial curve, poor fit]"},
      {"smiles": "Cc1nc(N2CCC(C(O)c3nccn3C)CC2)c2sccc2n1", "note": "(configuration not stated)", "activity, negative = inhibition": "inactive: -1.09%"},
      {"smiles": "CC1=Nc2cc(C(=O)NCc3ccc(C)cc3)ccc2Sc2ccc(Cl)cc21", "Potency": "inconclusive: 8.91 µM [inhibitor, partial curve]"},
      {"smiles": "c1cncc(Nc2cc3c(cn2)CN(Cc2c[nH]c4ccccc24)CCN3)c1", "Potency": "inconclusive: 3.55 µM [inhibitor, full curve, poor fit]"},
      {"smiles": "COC(=O)C1=C(C)NC(=O)C1(NC(=O)c1ccc(Cl)cc1)C(F)(F)F", "note": "(configuration not stated)", "activity, negative = inhibition": "inactive: 15.2%"},
      {"smiles": "O=C(C1CCCN(c2nc3ncccc3o2)C1)N1CCCC1", "note": "(configuration not stated)", "activity, negative = inhibition": "inactive: -3.66% [at 44.1 µM]"},
      {"smiles": "Cc1c(CC(=O)NC(C)(C)CO)c2c(n1Cc1ccccc1F)CCCC2=O", "Potency": "inconclusive: 12.6 µM [inhibitor, single point]"},
      {"smiles": "COCC1CN(C)CC12CCN(Cc1cccc(OC)c1OC)CC2", "note": "(configuration not stated)", "Potency": "inconclusive: 6.31 µM [inhibitor, partial curve]"},
      {"smiles": "O=C1NCc2ccccc2CC12CCN(Cc1ccc([N+](=O)[O-])cc1)C2", "note": "(configuration not stated)", "activity, negative = inhibition": "inactive: -0.98%"},
      {"smiles": "Cc1ccc(N2CC(c3noc(-c4ccccc4C)n3)CC2=O)cc1", "note": "(configuration not stated)", "activity, negative = inhibition": "inactive: 11.4%"},
      {"smiles": "Cc1cccn2c(CNC3CCC4(CCNCC4)CC3)cnc12", "activity, negative = inhibition": "inactive: 7.78%"},
      {"smiles": "Cc1cn2nc(C(=O)N3CCC(NC(=O)COc4ccccc4)CC3)cc2c(=O)[nH]1", "Potency": "inconclusive: 1.41 µM [inhibitor, partial curve, poor fit]"},
      {"smiles": "Cc1cc(-c2nc(-c3c(C)noc3C)cc3cc(C)oc23)ccn1", "Potency": "active: 11.2 µM"},
      {"smiles": "O=C1CO[C@H]2CN(C3CCC3)C[C@H]2N1Cc1ccc(OC(F)(F)F)cc1", "Potency": "active: 10 µM"},
      {"smiles": "COC(CNc1nc(-c2ccccn2)nc2c1c(C)nn2C)c1cccs1", "note": "(configuration not stated)", "Potency": "inconclusive: 11.2 µM [inhibitor, partial curve]"},
      {"smiles": "COc1ccc(CNC(=O)c2cc3cn(C(C)C)cc3s2)cc1", "outcome": "inactive"},
      {"smiles": "COc1ccc(OC)c(NC(=O)CCC[C@@H]2[C@H]3CCCN4CCC[C@@H](CN2C)[C@@H]34)c1", "Potency": "inconclusive: 3.98 µM [inhibitor, single point]"},
      {"smiles": "CCOc1ccc(-c2nnc(SCC(=O)NCc3ccc(C)cc3)nc2-c2ccc(OCC)c(OC)c2)cc1OC", "Potency": "inconclusive: 17.8 µM [inhibitor, single point]"},
      {"smiles": "CCOc1ccc(C(=O)N[C@H](c2ccc(OC)c(F)c2)C2CC(O)C2)o1", "note": "(some centres not stated)", "activity, negative = inhibition": "inactive: -8.39%"},
      {"smiles": "COc1ccc(C(=O)N2CCCn3nc(C)c(-c4ccccc4-c4ccccc4)c32)cc1", "Potency": "active: 10 µM"},
      {"smiles": "CCNC(=O)N(C1CC1)C1CCOC2(CCN(C(=O)COc3ccc(F)cc3)CC2)C1", "note": "(configuration not stated)", "activity, negative = inhibition": "inactive: -10.2%"},
      {"smiles": "c1ccc(CCN2CCNc3cc(-c4cn[nH]c4)ncc3C2)cc1", "Potency": "inconclusive: 11.2 µM [inhibitor, single point]"},
      {"smiles": "COc1ccc(-c2nc3ccccc3o2)cc1NC(=O)C(C)(C)Oc1ccc(Br)cc1", "Potency": "inconclusive: 10 µM [inhibitor, single point]"},
      {"smiles": "COc1nc(-c2ccc(OC)c3ncccc23)ncc1F", "Potency": "inconclusive: 3.55 µM [inhibitor, single point]"},
      {"smiles": "Cc1ccc(C(=O)N2CCC3(CC2)N(c2ccccc2)C(=O)CS3(=O)=O)c(C)c1", "Potency": "inconclusive: 1 µM [inhibitor, full curve]"}
    ]}
  ]
}
